For assay [1], the target named is toll-like 4 receptor (TLR4), mouse, endogenous in RAW264.7 cells (mouse (endogenous in RAW264.7)) (UniProt Q9QUK6). The assay can be described thus: co-IP; RAW264.7 cells treated 24 hrs with LPS (1 μg/ml) without or with 3α,5α-THP (1 μM) or pregnenolone (1 μM); cross-linked with membrane-permeable DSP (1 mM, 20 min on ice); extracted with Pierce IP Lysis Buffer; immunoprecipitated with antibody to TLR4 or TLR2 (normal IgG control); immunoblotted with MD-2 or HMGB1 antibody. In general terms: In western blotting, separated proteins are transferred to a membrane and probed.

Chains of the proteins cited; added tags and fusions are not shown. Residues count along the entry.
UniProt Q9QUK6, residues 26-835: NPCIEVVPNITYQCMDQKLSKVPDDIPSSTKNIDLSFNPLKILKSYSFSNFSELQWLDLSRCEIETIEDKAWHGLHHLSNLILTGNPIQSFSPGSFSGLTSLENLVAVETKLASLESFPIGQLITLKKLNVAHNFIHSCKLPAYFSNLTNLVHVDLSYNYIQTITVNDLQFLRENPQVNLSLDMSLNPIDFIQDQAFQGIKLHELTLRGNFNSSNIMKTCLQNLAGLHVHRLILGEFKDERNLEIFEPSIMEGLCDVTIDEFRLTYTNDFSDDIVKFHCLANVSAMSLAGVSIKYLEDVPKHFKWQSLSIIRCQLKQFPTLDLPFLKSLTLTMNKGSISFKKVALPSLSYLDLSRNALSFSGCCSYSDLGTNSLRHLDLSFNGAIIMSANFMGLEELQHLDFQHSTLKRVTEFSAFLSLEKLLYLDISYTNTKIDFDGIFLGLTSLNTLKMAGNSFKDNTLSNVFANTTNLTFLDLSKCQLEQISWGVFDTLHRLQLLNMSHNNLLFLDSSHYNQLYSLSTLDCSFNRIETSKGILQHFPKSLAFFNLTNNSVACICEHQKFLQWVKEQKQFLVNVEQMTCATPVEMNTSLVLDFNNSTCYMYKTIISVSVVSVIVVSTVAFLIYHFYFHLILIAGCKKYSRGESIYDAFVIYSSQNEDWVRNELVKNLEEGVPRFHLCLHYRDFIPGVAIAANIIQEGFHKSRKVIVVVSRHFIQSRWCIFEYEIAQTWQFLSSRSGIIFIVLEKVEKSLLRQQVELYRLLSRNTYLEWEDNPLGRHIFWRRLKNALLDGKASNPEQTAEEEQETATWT
UniProt Q9QUN7, residues 25-784: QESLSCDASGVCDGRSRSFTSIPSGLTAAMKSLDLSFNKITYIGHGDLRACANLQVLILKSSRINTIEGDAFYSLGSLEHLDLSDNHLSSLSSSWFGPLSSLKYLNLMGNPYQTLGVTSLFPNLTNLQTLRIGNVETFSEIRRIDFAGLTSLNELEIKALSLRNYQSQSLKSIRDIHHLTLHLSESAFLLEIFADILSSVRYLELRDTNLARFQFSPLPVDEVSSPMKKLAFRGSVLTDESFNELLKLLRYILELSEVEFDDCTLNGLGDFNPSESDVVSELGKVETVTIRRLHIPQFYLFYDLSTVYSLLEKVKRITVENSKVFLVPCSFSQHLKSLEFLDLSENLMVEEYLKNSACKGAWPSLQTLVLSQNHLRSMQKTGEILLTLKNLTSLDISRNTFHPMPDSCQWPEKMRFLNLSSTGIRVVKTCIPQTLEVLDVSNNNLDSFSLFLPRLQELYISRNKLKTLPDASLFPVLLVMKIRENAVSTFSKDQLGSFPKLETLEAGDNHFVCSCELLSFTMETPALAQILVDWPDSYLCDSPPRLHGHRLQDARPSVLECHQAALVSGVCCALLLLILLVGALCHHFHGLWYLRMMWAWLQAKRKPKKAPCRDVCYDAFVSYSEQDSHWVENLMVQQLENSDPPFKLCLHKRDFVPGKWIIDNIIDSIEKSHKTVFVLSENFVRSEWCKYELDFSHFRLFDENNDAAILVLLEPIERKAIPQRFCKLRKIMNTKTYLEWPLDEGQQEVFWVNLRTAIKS
UniProt P23576, residues 29-451: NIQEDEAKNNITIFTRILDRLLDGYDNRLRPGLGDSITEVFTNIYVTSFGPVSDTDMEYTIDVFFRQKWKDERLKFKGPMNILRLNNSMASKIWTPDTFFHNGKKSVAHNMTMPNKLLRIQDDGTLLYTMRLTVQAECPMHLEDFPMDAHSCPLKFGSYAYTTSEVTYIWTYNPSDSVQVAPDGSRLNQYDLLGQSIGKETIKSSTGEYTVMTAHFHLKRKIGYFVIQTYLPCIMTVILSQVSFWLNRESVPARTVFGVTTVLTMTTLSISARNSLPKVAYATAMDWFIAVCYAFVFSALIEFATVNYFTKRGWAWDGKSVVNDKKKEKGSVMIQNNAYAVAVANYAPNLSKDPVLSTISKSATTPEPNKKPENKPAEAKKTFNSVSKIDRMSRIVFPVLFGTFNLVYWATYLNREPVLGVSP
UniProt P63158: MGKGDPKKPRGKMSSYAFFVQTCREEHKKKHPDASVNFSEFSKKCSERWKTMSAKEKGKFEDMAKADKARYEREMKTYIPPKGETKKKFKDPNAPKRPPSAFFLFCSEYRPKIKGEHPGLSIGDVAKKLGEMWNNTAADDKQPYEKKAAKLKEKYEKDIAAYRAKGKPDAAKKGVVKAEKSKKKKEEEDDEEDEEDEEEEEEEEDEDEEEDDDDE
UniProt P63159: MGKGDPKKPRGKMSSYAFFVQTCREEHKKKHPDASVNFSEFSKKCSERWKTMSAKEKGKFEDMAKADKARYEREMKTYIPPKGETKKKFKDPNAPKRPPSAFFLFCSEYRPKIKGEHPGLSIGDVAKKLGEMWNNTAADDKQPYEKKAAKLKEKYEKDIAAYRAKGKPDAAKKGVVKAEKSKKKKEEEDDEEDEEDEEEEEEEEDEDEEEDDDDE
UniProt Q6Y1S1: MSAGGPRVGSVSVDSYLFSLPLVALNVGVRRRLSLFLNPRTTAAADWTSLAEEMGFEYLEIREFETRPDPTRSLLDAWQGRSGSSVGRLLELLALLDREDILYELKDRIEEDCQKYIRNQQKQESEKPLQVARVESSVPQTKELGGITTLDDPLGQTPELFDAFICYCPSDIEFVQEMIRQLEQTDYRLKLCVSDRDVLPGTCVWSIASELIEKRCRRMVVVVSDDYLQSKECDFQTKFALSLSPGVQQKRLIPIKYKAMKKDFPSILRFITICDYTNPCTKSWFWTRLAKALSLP

Assay [2] deals with TLR2, mouse, endogenous in RAW264.7 cells (mouse (endogenous in RAW264.7)) (UniProt Q9QUN7). The description is as above.
Assay [3] concerns the target T1, toll-like 4 receptor (TLR4), rat, endogenous in P rat VTA (rat (endogenous in P rat VTA)) (UniProt Q9QX05).
T1 sequence: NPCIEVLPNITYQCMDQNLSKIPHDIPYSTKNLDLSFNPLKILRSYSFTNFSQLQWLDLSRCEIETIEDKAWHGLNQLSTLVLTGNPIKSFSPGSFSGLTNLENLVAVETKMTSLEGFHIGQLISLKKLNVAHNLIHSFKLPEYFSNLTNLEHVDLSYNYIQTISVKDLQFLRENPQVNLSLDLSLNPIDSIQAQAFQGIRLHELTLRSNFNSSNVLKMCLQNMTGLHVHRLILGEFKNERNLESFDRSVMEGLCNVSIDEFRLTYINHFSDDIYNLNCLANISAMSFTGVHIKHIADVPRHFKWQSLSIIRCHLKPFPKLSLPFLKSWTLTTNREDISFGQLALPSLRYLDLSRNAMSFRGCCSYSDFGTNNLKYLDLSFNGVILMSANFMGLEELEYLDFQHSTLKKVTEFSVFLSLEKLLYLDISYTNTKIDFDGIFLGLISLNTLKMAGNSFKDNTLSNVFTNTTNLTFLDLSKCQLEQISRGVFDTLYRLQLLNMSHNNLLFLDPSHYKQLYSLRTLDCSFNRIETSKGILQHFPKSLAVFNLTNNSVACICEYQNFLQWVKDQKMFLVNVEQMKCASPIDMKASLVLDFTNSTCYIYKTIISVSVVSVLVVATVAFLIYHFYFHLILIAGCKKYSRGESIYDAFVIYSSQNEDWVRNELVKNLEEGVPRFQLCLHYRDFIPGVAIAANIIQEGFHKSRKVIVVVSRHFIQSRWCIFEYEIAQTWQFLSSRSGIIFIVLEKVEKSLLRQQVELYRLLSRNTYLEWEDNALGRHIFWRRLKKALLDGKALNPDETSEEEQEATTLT
Briefly: co-IP; P rat VTA micropunch extracts (CelLytic MT), rats naive or given vehicle or 3α,5α-THP (15 mg/kg, IP, 45 min); immunoprecipitated with antibody to TLR4 or α2 (normal IgG control); immunoblotted with α2, TLR4, MyD88 or HMGB1 antibodies.

Assay [4] concerns the target GABAA receptor α2 subunit, rat, endogenous in P rat VTA (rat (endogenous in P rat VTA)) (UniProt P23576). Described as above.

These are yes or no findings as the source states them, for the method shown. Binding seen in cells or lysates may run through a third protein. Some entries that bind do so weakly or less than the wild type.

Regarding “high mobility group box-1 (HMGB1), mouse, endogenous in RAW264.7 cells (from UniProt P63158 1-215)”, the binding entry in assay [1] and in assay [2] was “binds” each time.
Take “high mobility group box-1 (HMGB1), rat, endogenous in P rat VTA (from UniProt P63159 1-215)”: the binding entry in assay [3] is given as “binds”.
With “myeloid differentiation primary response 88 (MyD88), rat, endogenous in P rat VTA (from UniProt Q6Y1S1 1-296)”, the binding result in assay [3] was “binds”.

B1: MD-2 (myeloid differentiation factor 2), mouse, endogenous in RAW264.7 cells (protein, UniProt Q9JHF9 19-160)
chain: EKQQWFCNSSDAIISYSYCDHLKFPISISSEPCIRLRGTNGFVHVEFIPRGNLKYLYFNLFISVNSIELPKRKEVLCHGHDDDYSFCRALKGETVNTSIPFSFEGILFPKGHYRCVAEAIAGDTEEKLFCLNFTIIHRRDVN
For the molecule B1, the binding entry in assay [1] is listed as “binds”; in assay [2], “no binding”.

B2: toll-like 4 receptor (TLR4), rat, endogenous in P rat VTA (receptor, UniProt Q9QX05 26-835)
chain: NPCIEVLPNITYQCMDQNLSKIPHDIPYSTKNLDLSFNPLKILRSYSFTNFSQLQWLDLSRCEIETIEDKAWHGLNQLSTLVLTGNPIKSFSPGSFSGLTNLENLVAVETKMTSLEGFHIGQLISLKKLNVAHNLIHSFKLPEYFSNLTNLEHVDLSYNYIQTISVKDLQFLRENPQVNLSLDLSLNPIDSIQAQAFQGIRLHELTLRSNFNSSNVLKMCLQNMTGLHVHRLILGEFKNERNLESFDRSVMEGLCNVSIDEFRLTYINHFSDDIYNLNCLANISAMSFTGVHIKHIADVPRHFKWQSLSIIRCHLKPFPKLSLPFLKSWTLTTNREDISFGQLALPSLRYLDLSRNAMSFRGCCSYSDFGTNNLKYLDLSFNGVILMSANFMGLEELEYLDFQHSTLKKVTEFSVFLSLEKLLYLDISYTNTKIDFDGIFLGLISLNTLKMAGNSFKDNTLSNVFTNTTNLTFLDLSKCQLEQISRGVFDTLYRLQLLNMSHNNLLFLDPSHYKQLYSLRTLDCSFNRIETSKGILQHFPKSLAVFNLTNNSVACICEYQNFLQWVKDQKMFLVNVEQMKCASPIDMKASLVLDFTNSTCYIYKTIISVSVVSVLVVATVAFLIYHFYFHLILIAGCKKYSRGESIYDAFVIYSSQNEDWVRNELVKNLEEGVPRFQLCLHYRDFIPGVAIAANIIQEGFHKSRKVIVVVSRHFIQSRWCIFEYEIAQTWQFLSSRSGIIFIVLEKVEKSLLRQQVELYRLLSRNTYLEWEDNALGRHIFWRRLKKALLDGKALNPDETSEEEQEATTLT
With B2, in assay [4], the binding entry is recorded as “binds”.

Source of the values: paper PMC6362084.
